In one test the test system is W130Q PmIleRS2. The test can be described thus: ATP-PPi exchange assay, mupirocin inhibition of amino acid activation. In kind it is biochemical, Priestia (Bacillus) megaterium. To be noted: Replica 1-3. As to the method:
(§1) L-Ile and ATP concentrations ranged from 1/10 KM to 10 KM values. When measuring the KI towards one of the substrates, the other was held in saturation (concentrations at least 10 KM). The aliquots of the reaction mixture (1–2.5 μl) were quenched in 2 volumes of 500 mM NaOAc pH = 4.5, 0.1% SDS, and formed ^32P-ATP was separated from the remaining ^32P-PPi by thin-layer chromatography on Polygram CEL 300 PEI UV254 TLC plates (Macherey-Nagel, cat: 801063) using 750 mM KH2PO4 pH=3.5, 4 M urea buffer. Visualization and quantification of the signals was performed using a Typhoon Phosphoimager 5 (General Electric) and accompanying ImageQuant™ TL software (SV: 10.2). The kinetic constants were determined using a global fit option of the competitive inhibition model of GraphPad Prism 6 software (SV: 6.01). All experiments were performed in triplicates. The kcat was determined by dividing the maximal velocity, VM, with the used enzyme concentration.
Source data are provided as a Source Data file. Data are presented as the average value
± SD of three independent experiments. b) A 2Fo-Fc Fourier difference map of the W130Q-HVGH-PmIleRS2:Ile-AMS […]

The target in another test is T1, wt-HVGH TtIleRS2 (Thermus thermophilus, UniProt P56690).
T1 construct: hexa-histidine tag (pET28b(+)) (N); made in house; host or cells: E. coli Rosetta2 (DE3)
T1 sequence (P56690 1-1043): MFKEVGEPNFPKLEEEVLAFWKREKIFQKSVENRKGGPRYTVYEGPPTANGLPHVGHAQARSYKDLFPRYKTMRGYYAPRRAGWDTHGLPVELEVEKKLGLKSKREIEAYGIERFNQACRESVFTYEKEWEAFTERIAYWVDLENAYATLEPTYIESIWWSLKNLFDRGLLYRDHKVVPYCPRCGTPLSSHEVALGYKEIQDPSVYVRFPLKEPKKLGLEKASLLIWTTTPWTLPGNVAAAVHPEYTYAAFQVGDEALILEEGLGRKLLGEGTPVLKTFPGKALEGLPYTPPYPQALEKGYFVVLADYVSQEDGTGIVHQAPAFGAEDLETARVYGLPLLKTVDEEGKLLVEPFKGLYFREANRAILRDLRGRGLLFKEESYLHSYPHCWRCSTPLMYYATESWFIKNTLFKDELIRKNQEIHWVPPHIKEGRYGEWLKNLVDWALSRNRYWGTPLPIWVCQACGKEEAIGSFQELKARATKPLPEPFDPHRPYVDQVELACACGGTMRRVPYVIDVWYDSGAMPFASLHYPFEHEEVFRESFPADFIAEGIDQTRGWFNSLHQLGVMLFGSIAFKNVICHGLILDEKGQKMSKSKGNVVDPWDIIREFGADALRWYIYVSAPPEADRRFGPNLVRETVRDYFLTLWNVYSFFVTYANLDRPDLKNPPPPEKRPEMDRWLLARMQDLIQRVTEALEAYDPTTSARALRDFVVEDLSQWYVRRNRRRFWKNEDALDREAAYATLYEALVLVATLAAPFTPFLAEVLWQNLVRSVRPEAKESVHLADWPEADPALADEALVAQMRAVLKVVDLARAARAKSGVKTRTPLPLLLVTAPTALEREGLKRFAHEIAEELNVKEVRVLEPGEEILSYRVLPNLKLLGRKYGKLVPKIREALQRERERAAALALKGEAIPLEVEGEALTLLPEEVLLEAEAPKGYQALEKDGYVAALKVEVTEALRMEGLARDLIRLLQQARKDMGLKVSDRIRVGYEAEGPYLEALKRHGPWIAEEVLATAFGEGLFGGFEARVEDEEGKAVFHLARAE
The description is as above. In kind it is biochemical. How it is done: as §1, with “concentration. […]” for “concentration.”
variable substrate (ATP or Ile) was varied in the range of 0.1 KM to 10 KM. The other substrate (Ile or ATP) was kept in excess at 5 to 10 KM. Data were globally fitted to the competitive inhibition model using GraphPad prism 6.01 for Windows software. The values represent the average value ± SD of three independent experiments. Source data are provided as a Source Data file.

The structures appear in SMILES notation. “And” between values parts separate entries of the source, which are not always exact repeats. Equal entries are not always repeated. The source gives many values for each of these; only a part stands here.

On to `C/C(=C\C(=O)OCCCCCCCCC(=O)O)C[C@@H]1OC[C@H](C[C@@H]2O[C@H]2[C@@H](C)[C@H](C)O)[C@@H](O)[C@H]1O` [mupirocin], for which the “vo (initial enzyme velocity)” value was 0.0161 mM/min and 0.01682 mM/min and 0.01574 mM/min with W130Q PmIleRS2 (c (mupirocin) = 1.0 μM, c (ATP) 2.5 mM, raw data for KI(MUP) towards ATP); 0.00878 mM/min and 0.00859 mM/min and 0.00719 mM/min with W130Q PmIleRS2 (c (mupirocin) = 5.0 μM, c (ATP) 2.5 mM, raw data for KI(MUP) towards ATP); 0.03274 mM/min and 0.03399 mM/min in the test on W130Q PmIleRS2 (c (mupirocin) = 5.0 μM, c (Ile) 120.0 μM, raw data for KI(MUP) towards Ile); 0.00518 mM/min and 0.00484 mM/min and 0.00406 mM/min in the test with W130Q PmIleRS2 (c (mupirocin) = 10.0 μM, c (ATP) 2.5 mM, raw data for KI(MUP) towards ATP); 0.00162 mM/min and 0.0022 mM/min and 0.00235 mM/min with W130Q PmIleRS2 (c (mupirocin) = 25.0 μM, c (ATP) 2.5 mM, raw data for KI(MUP) towards ATP). Besides, the initial velocity vo at wt-HVGH TtIleRS2 (c(mupirocin) 0.25 μM, c(Ile) 50.0 μM) is 0.03268 mM/min and 0.032 mM/min and 0.03228 mM/min; at wt-HVGH TtIleRS2 (c(mupirocin) 0.25 μM, c(Ile) 100.0 μM), 0.04214 mM/min and 0.04284 mM/min and 0.04036 mM/min; at wt-HVGH TtIleRS2 (c(mupirocin) 0.25 μM, c(Ile) 250.0 μM), 0.05149 mM/min and 0.05049 mM/min and 0.05195 mM/min; at wt-HVGH TtIleRS2 (c(mupirocin) 0.25 μM, c(Ile) 500.0 μM) it was 0.05528 mM/min and 0.05614 mM/min and 0.05474 mM/min; on wt-HVGH TtIleRS2 (c(mupirocin) 0.5 μM, c(Ile) 50.0 μM), 0.02391 mM/min and 0.02562 mM/min and 0.0253 mM/min; on wt-HVGH TtIleRS2 (c(mupirocin) 0.5 μM, c(Ile) 100.0 μM), 0.03543 mM/min and 0.03534 mM/min and 0.03513 mM/min. Further, the initial velocity vo on wt-HVGH TtIleRS2 (c(mupirocin) 0.5 μM, c(Ile) 250.0 μM) is 0.04652 mM/min and 0.04792 mM/min and 0.04618 mM/min; on wt-HVGH TtIleRS2 (c(mupirocin) 0.5 μM, c(Ile) 500.0 μM) it was 0.05261 mM/min and 0.05646 mM/min and 0.05126 mM/min; at wt-HVGH TtIleRS2 (c(mupirocin) 1.0 μM, c(Ile) 100.0 μM) it was 0.0275 mM/min and 0.02794 mM/min and 0.02492 mM/min; on wt-HVGH TtIleRS2 (c(mupirocin) 1.0 μM, c(Ile) 250.0 μM) it was 0.03985 mM/min and 0.04062 mM/min and 0.0387 mM/min; on wt-HVGH TtIleRS2 (c(mupirocin) 1.0 μM, c(Ile) 500.0 μM) it was 0.0485 mM/min and 0.04796 mM/min and 0.04648 mM/min; on wt-HVGH TtIleRS2 (c(mupirocin) 5.0 μM, c(Ile) 50.0 μM), 0.00676 mM/min and 0.00659 mM/min and 0.00595 mM/min. Further, the initial velocity vo on wt-HVGH TtIleRS2 (c(mupirocin) 5.0 μM, c(Ile) 100.0 μM) is 0.01129 mM/min and 0.01079 mM/min and 0.01133 mM/min; at wt-HVGH TtIleRS2 (c(mupirocin) 5.0 μM, c(Ile) 250.0 μM), 0.02173 mM/min and 0.0201 mM/min and 0.02247 mM/min; at wt-HVGH TtIleRS2 (c(mupirocin) 5.0 μM, c(Ile) 500.0 μM), 0.03028 mM/min and 0.03338 mM/min; at wt-HVGH TtIleRS2 (c(mupirocin) 10.0 μM, c(Ile) 50.0 μM) it was 0.00372 mM/min and 0.00331 mM/min and 0.00384 mM/min; on wt-HVGH TtIleRS2 (c(mupirocin) 10.0 μM, c(Ile) 100.0 μM) it was 0.00666 mM/min and 0.00687 mM/min and 0.00702 mM/min; on wt-HVGH TtIleRS2 (c(mupirocin) 10.0 μM, c(Ile) 250.0 μM), 0.01344 mM/min and 0.01334 mM/min and 0.01358 mM/min. The initial velocity vo on wt-HVGH TtIleRS2 (c(mupirocin) 10.0 μM, c(Ile) 500.0 μM) is 0.02191 mM/min and 0.02198 mM/min and 0.01987 mM/min.

The values are drawn from article PMC10485003, “Antibiotic hyper-resistance in a class I aminoacyl-tRNA synthetase with altered active site signature motif” (Nature Communications, 2023).
